This is an account of results in the supplement of paper PMC3724861.

This is one part of the list.

This experiment has as its system T1, Caupolican (Caup) homeodomain DNA-binding domain.
T1 sequence: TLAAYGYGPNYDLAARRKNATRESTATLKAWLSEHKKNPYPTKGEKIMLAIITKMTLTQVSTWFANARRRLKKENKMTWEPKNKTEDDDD
In words: PBM E-score (8-mer, recovered from the published 9-mer minima) (E-score (dimensionless, -0.5 to 0.5)); Drosophila protein; higher = stronger relative binding preference, active = 0.31 or more. Put shortly:
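An enrichment score, with higher meaning stronger, expresses relative binding preference for each short DNA word. The protein used was Caup's homeodomain DNA-binding domain (residues 214-303), produced by in vitro transcription and translation and tested at 100 nM on custom-designed protein binding microarrays. The 8-mer values were recovered from published 9-mer scores, each equal to the lower of its two constituent 8-mer scores.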
On to ACTTTAAC, for which the “PBM E-score” value was inactive: 0.0453.

Take ATTTTGGC: the “PBM E-score” value is inactive: 0.0116.

In the case of AGCGGAGA, the “PBM E-score” value was inactive: -0.0915.

CCCTAAGG: the “PBM E-score” value was inactive: -0.161.

With AGTGTAAG, the “PBM E-score” value is inactive: 0.215.

Turning to ACAAGGGC, the “PBM E-score” value is inactive: 0.147.

CGCGGAAC: the “PBM E-score” value is inactive: -0.118.

For ACAGCCAA, the “PBM E-score” value was inactive: 0.00118.

GGCGACAA: the “PBM E-score” value is inactive: 0.138.

With CAGGGCGC, the “PBM E-score” value is inactive: -0.179.

As to GATTGCGC, the “PBM E-score” value is inactive: -0.0393.

TCAGTCAA: the “PBM E-score” value is inactive: 0.0873.

As for CCCGTGAC, the “PBM E-score” value was inactive: -0.122.

As for AATCTCCT, the “PBM E-score” value was inactive: -0.00874.

On to GGGGACCC, for which the “PBM E-score” value was inactive: -0.384.

AGGCGACG: the “PBM E-score” value was inactive: -0.203.

Regarding ATGGAGAG, the “PBM E-score” value is inactive: -0.0433.

On to CGAGGCCA, for which the “PBM E-score” value was inactive: -0.0938.

For the sequence CATAGCTA, the “PBM E-score” value is inactive: -0.0309.

As to ACTATATC, the “PBM E-score” value was inactive: 0.189.

GTCGGATA: the “PBM E-score” value is inactive: 0.146.

In the case of CTAAAAAA, the “PBM E-score” value is inactive: 0.0517.

For the sequence ATGCAAAT, the “PBM E-score” value is inactive: 0.168.

For ATGAGTGC, the “PBM E-score” value is inactive: -0.0461.

On to GATTTTAA, for which the “PBM E-score” value was inactive: 0.0492.

Take ACAACAGG: the “PBM E-score” value was inactive: 0.192.

For ATTCATAC, the “PBM E-score” value is inactive: 0.128.

For the sequence AACCATCA, the “PBM E-score” value is inactive: 0.0883.

Consider GGCTGGCA, for which the “PBM E-score” value is inactive: -0.238.

For the sequence AGAGAAGC, the “PBM E-score” value was inactive: -0.0129.

Take AGTACTAC: the “PBM E-score” value is inactive: 0.268.

On to GCTCTACA, for which the “PBM E-score” value was inactive: 0.0637.

Turning to CTTATCAA, the “PBM E-score” value is inactive: 0.108.

As to CTCTTATC, the “PBM E-score” value is inactive: 0.083.

Turning to CAAGGTAA, the “PBM E-score” value was inactive: 0.125.

With AAAATCAG, the “PBM E-score” value is inactive: 0.119.

Regarding ATATTCAT, the “PBM E-score” value was at least 0.172.

As for CATACCGG, the “PBM E-score” value is inactive: -0.0711.

On to ATGCCTTC, for which the “PBM E-score” value was inactive: -0.136.

As to AGGGAGCG, the “PBM E-score” value was inactive: -0.207.

In the case of AGCGGTTA, the “PBM E-score” value is inactive: -0.0759.

On to CCATCTCG, for which the “PBM E-score” value was inactive: -0.151.

In the case of CTGGTGTA, the “PBM E-score” value is inactive: 0.166.

As to ACGATTGG, the “PBM E-score” value was inactive: -0.0267.

Regarding ATGTAAAA, the “PBM E-score” value is active: 0.354.

Take CCTTTCCC: the “PBM E-score” value is inactive: -0.174.

As for ACACCTAC, the “PBM E-score” value was inactive: 0.187.

Consider AAAGATCA, for which the “PBM E-score” value was inactive: 0.00037.

Regarding ACCGACCA, the “PBM E-score” value was at least -0.00916.

Regarding ATCAAGGA, the “PBM E-score” value was inactive: -0.00179.

Take CCGTTGAC: the “PBM E-score” value is inactive: -0.0215.

As for ACCGTCTC, the “PBM E-score” value is inactive: -0.0897.

For the sequence ACTTCAAG, the “PBM E-score” value was inactive: 0.106.

With ACTGTCTA, the “PBM E-score” value is inactive: 0.0904.

Regarding ACGTATGG, the “PBM E-score” value is inactive: 0.0469.

In the case of GAGCGAGC, the “PBM E-score” value was inactive: -0.196.

ATACGATG: the “PBM E-score” value is inactive: 0.15.

With AGGGCAAG, the “PBM E-score” value is inactive: -0.036.

Take GCTTCGCA: the “PBM E-score” value was inactive: -0.116.

As for AACAGGGG, the “PBM E-score” value is inactive: 0.0757.

Take ACGAAAAT: the “PBM E-score” value is at least 0.138.

AAAAATTT: the “PBM E-score” value is inactive: 0.0755.

Consider GCAAAGAA, for which the “PBM E-score” value is inactive: -0.0885.

Turning to ATGAACAC, the “PBM E-score” value is active: 0.332.

Turning to CAAACCGA, the “PBM E-score” value was inactive: 0.0751.

As for GTGAAGGA, the “PBM E-score” value was inactive: -0.0495.

In the case of CACAGCCC, the “PBM E-score” value is inactive: -0.2.

AATGCATA: the “PBM E-score” value was inactive: 0.0394.

As for AATAAAGA, the “PBM E-score” value is inactive: 0.0782.

Turning to ACAATAGG, the “PBM E-score” value was inactive: 0.0633.

ACCAGAGG: the “PBM E-score” value was inactive: -0.103.

Regarding AGTTAGCA, the “PBM E-score” value is inactive: 0.108.

Consider ACTATACG, for which the “PBM E-score” value is inactive: 0.0859.

ATAGGCAC: the “PBM E-score” value is inactive: -0.142.

As to AGCGGTAA, the “PBM E-score” value was inactive: 0.0469.

In the case of ATAGTCTG, the “PBM E-score” value was inactive: 0.0481.

For CGTATCTC, the “PBM E-score” value is inactive: -0.0862.

Take ATCGTGGG: the “PBM E-score” value was inactive: -0.132.

For TGTCCCAA, the “PBM E-score” value is inactive: 0.0761.

As to AGCCCGAT, the “PBM E-score” value is inactive: -0.0775.

Regarding TCGTCTAA, the “PBM E-score” value was inactive: -0.0451.

Take CCGGGATC: the “PBM E-score” value was inactive: -0.172.

For the sequence AGTGCGAG, the “PBM E-score” value was inactive: -0.126.

On to AGAGGCCA, for which the “PBM E-score” value was inactive: -0.184.

Turning to GACTCCTC, the “PBM E-score” value is inactive: -0.117.

In the case of ACTCAGCA, the “PBM E-score” value is inactive: 0.0319.

Take AGGTCAAA: the “PBM E-score” value was inactive: -0.0266.

With CTCGTCGC, the “PBM E-score” value is inactive: -0.147.

As to CTCCCAAC, the “PBM E-score” value is inactive: -0.194.

Turning to ATAGCGAG, the “PBM E-score” value was inactive: -0.0625.

For the sequence GACAGGGC, the “PBM E-score” value was inactive: -0.0448.

Turning to GACTGGGA, the “PBM E-score” value is inactive: -0.0843.

For CTACCAAA, the “PBM E-score” value was inactive: 0.0218.

As for GCGTCATA, the “PBM E-score” value was inactive: 0.0873.

For AGAACACT, the “PBM E-score” value is inactive: 0.108.

For the sequence AAGAGTGA, the “PBM E-score” value is at least 0.123.

With TCTCCAGA, the “PBM E-score” value was inactive: -0.0511.

CGAGTGAG: the “PBM E-score” value is inactive: -0.0716.

For the sequence GTCTTCGA, the “PBM E-score” value is inactive: -0.0595.

As for ACCTGTGC, the “PBM E-score” value was inactive: 0.0281.

Consider GGTTGCTA, for which the “PBM E-score” value is inactive: -0.0979.

For the sequence ACATAGTC, the “PBM E-score” value was inactive: 0.274.

With ATAAATCG, the “PBM E-score” value was inactive: -0.0213.

Regarding AGAAAGTC, the “PBM E-score” value is inactive: -0.0132.

GAGTCGAC: the “PBM E-score” value was inactive: 0.0385.

Turning to AACCCGCA, the “PBM E-score” value was inactive: -0.135.

As for AGGCTTGG, the “PBM E-score” value was inactive: -0.0901.

In the case of CCATGAGC, the “PBM E-score” value is inactive: -0.158.

With ATGTGTTG, the “PBM E-score” value was active: 0.34.

CTCCGAAC: the “PBM E-score” value is inactive: -0.0483.

With CATACAAG, the “PBM E-score” value was inactive: 0.3.
